# Results: the supplement of paper PMC3334620
# Whole data set: some 33,000 sequences, median “E-score (-0.5 to 0.5)” near -0.017, cut for the highest 2% near 0.3. Some of the results follow.
# Biological target: T1, Sut1 (UniProt P53032)
# T1 sequence: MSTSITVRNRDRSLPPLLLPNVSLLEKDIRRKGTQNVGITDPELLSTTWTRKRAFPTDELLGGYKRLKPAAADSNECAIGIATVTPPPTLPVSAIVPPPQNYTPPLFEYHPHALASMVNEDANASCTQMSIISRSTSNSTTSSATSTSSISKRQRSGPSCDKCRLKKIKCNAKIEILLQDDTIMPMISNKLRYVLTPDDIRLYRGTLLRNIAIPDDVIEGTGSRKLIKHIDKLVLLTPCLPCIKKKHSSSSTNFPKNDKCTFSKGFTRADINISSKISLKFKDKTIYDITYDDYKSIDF
# Experiment: PBM E-score (8-mer binding enrichment) (E-score (-0.5 to 0.5)); higher = stronger / more preferred TF binding; most listed sequences are background and not binding sites
# Conditions: protein concentration: 200 nM; construct: GST-full length
# In short: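 E-scores (a modified Wilcoxon-Mann-Whitney statistic) were assigned by the Universal PBM Analysis Suite to every ungapped eight-base word pooled with its reverse complement. The input came from universal all-10-mer Agilent arrays made double-stranded by primer extension and probed with GST-tagged yeast transcription factors at about 100-200 nM. Fluorescent anti-GST detected bound protein, and masliner normalised the scans.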
row,Sequence,PBM E-score
1,AGCAAGTG,-0.223
2,CATTCGGG,-0.0375
3,ATTGGAGG,-0.226
4,CATGAAGG,0.0652
5,AATTTATA,0.276
6,CCGTCTCA,-0.0728
7,GCGCGTCA,-0.00075
8,ACTAGCTC,0.156
9,CCGTCGCA,-0.0269
10,CAATACGG,-0.0587
11,ACGCGACT,-0.145
12,ACGAGGAA,-0.0284
13,GCGTGGTA,-0.102
14,GAATAAAC,0.17
15,ATGCCAAT,-0.105
16,AGCGTCCC,-0.168
17,ATCACCTC,0.00627
18,GTAGGGGA,-0.174
19,CATCTTAG,0.0151
20,GTTTACCA,0.135
21,ATCGATAG,-0.00817
22,AAGCAGAG,-0.037

row,Sequence,PBM E-score
1,ACTCCTGC,0.0597
2,GCACTTTA,0.013
3,ACGCGACA,0.0269
4,GCAGACCA,-0.105
5,ATCTCGGG,0.0127
6,GCAGAGAA,-0.00121
7,GCCGGTCC,-0.181
8,CGGCTCAC,-0.00015
9,AATGGAAA,-0.0179
10,CGCGAGCC,-0.106
11,CCGGGGAA,0.0838
12,AAGGGCAT,-0.308
13,GTCTCAAC,0.0183
14,AATCACAA,-0.0123
15,AGTCCGAT,0.486
16,GATTATAA,0.154
17,ACTGGTCA,-0.013
18,ATTGAGAG,0.0325
19,AGCGGTAC,-0.189
20,AAAGGATA,0.224
21,GCCCAACA,-0.216
22,AATTAGTC,0.155

row,Sequence,PBM E-score
1,AATCCCCT,-0.219
2,CAGTACAG,-0.0275
3,CAGGCTTC,-0.0159
4,CAGTGCGA,-0.18
5,CCGAAGCC,0.0551
6,AGCTGATG,-0.0349
7,CCGGACTC,0.476
8,CAGTAGGG,-0.292
9,AGTGTGAC,-0.165
10,ACGTCCCC,-0.214
11,ATAGTCGG,0.0106
12,GGCGCGGA,0.0941
13,AGGGTACG,-0.186
14,ATCCTAGA,-0.0865
15,ACAGTAGA,0.0255
16,ACAAATAC,0.205
17,CGTCTCCA,-0.0128
18,ATCGGGAC,-0.121
19,ATCCCGTA,-0.0312
20,AGGAGCTA,-0.155
21,AGTCCAGA,0.0785
22,CGGAGATA,0.458

row,Sequence,PBM E-score
1,AAGGGATC,0.0681
2,CAGCACCG,-0.0462
3,CCGAGTAA,0.18
4,CTGAAGAC,-0.0142
5,GACTGCAC,-0.0253
6,ACGACTTA,-0.156
7,GGTCACAC,-0.311
8,TAGGGTGA,0.0189
9,TCCTCTAA,-0.119
10,TAACCCGA,-0.0473
11,TACTACGA,0.00078
12,CCAGACAA,-0.108
13,CTACCCTA,-0.152
14,GGCTCGTA,-0.15
15,ACGGCCTC,-0.29
16,ACTTGCTG,-0.163
17,GGCATGCA,0.0182
18,CTCATTAC,0.0834
19,TCCGCCAA,0.112
20,GTTTACAA,0.237
21,ATGGACCC,-0.0796
22,ATTATACG,0.167

row,Sequence,PBM E-score
1,AACCCTAC,-0.287
2,AGGAGCAC,0.0107
3,AGGCCAAG,-0.183
4,CATGTGTA,0.0397
5,CGAATGCA,0.0106
6,AACAGGGA,-0.00339
7,CCCACCCC,-0.0609
8,AGCCTCTA,-0.278
9,CAGAGTGC,-0.233
10,AGATATTC,0.0706
11,AATAAACG,0.266
12,ACATCTTG,-0.157
13,GATAATAC,0.174
14,ACGCAGGA,-0.203
15,AATGTAAG,0.234
16,ATACATAT,0.247
17,CCGCGTCG,-0.132
18,AAGAGGGG,-0.0412
19,GCTTTAAA,0.0726
20,AATGGGCT,-0.259
21,TGGGGTAA,0.158
22,ACGCCCTG,-0.154
